About 220 (0.56%) of roughly 39,000 compounds showed activity. Some of the results follow.
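Also: static incubation at 37 °C against the wild-type strain, values averaged over two biological replicates.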

For this assay, the system named is Escherichia coli K-12 BW25113. In words: relative growth (OD600 normalised to plate interquartile mean) (fraction); higher = less growth inhibition, active = 0.2 or less. Particulars: 50 µM; LB; incubation time: overnight (16-24 h).
For the compound `C[C@@H]1CN([C@H](C)CO)C(=O)Cc2cc(NC(=O)Nc3cccc4ccccc34)ccc2O[C@H]1CN(C)Cc1ccc(Cl)c(Cl)c1`, the relative growth was inactive: 1.01.
For `C[C@H](CO)N1C[C@H](C)[C@H](CN(C)S(=O)(=O)c2cccs2)Oc2ccc(NS(C)(=O)=O)cc2CC1=O`, the relative growth is inactive: 1.01.
As for `C[C@@H]1CN([C@H](C)CO)C(=O)c2cc(NS(=O)(=O)c3cccs3)ccc2O[C@H]1CN(C)S(=O)(=O)c1ccccc1`, the relative growth is inactive: 0.959.
On to `C[C@@H]1CN([C@H](C)CO)C(=O)c2cccc(NC(=O)C3CCOCC3)c2O[C@H]1CN(C)Cc1ccncc1`, for which the relative growth is inactive: 1.05.
To `CC(C)NC(=O)Nc1ccc2c(c1)C(=O)N([C@@H](C)CO)C[C@@H](C)[C@H](CN(C)CC1CCCCC1)OCCCC[C@@H](C)O2` belongs inactive: 1.01.
As for `C[C@@H]1CN([C@H](C)CO)C(=O)Cc2cc(NC(=O)Cn3cnnn3)ccc2O[C@@H]1CN(C)Cc1ccc2c(c1)OCO2`, the relative growth is inactive: 0.836.
As for `CCc1nc2ccc(C(=O)N3CCN(C(=O)c4ccco4)CC3)cn2c1N(C)C(=O)COc1ccccc1`, the relative growth was inactive: 1.
Take `COCCNC(=O)C[C@H]1CC[C@@H](NS(=O)(=O)c2ccc(C)cc2)[C@@H](CO)O1`: the relative growth is inactive: 1.01.
For the compound `COc1ccc(-c2nc(-c3ccc(C)cc3C)cs2)cc1`, the relative growth is inactive: 1.01.
As for `C[C@H]1CN([C@@H](C)CO)C(=O)c2cc(NS(C)(=O)=O)ccc2O[C@H]1CN(C)C(=O)NC1CCCCC1`, the figure is inactive: 0.993; as for `COc1ccc(NC(=O)N2C[C@@H](O)COC[C@@H]3O[C@H](CC(=O)NC4Cc5ccccc5C4)CC[C@H]32)cc1`, inactive: 1.04; as for `Cc1noc(C)c1NC(=O)Nc1cccc2c1O[C@H](CN(C)Cc1ccc(C(F)(F)F)cc1)[C@H](C)CN([C@H](C)CO)C2=O`, inactive: 1.01.
Regarding `COc1cc2c3cc1Oc1cc(ccc1O)CC1c4c(cc(OC)c(O)c4Oc4ccc(cc4)CC3N(C)CC2)CC[N+]1(C)C.Cl.O.O.O.O.O.[Cl-]` (stereo not given), the relative growth was inactive: 0.995.
As for `C[C@@H]1CCCCO[C@@H](CN(C)C(=O)Nc2ccc3c(c2)OCO3)[C@H](C)CN([C@@H](C)CO)C(=O)c2cc(NC(=O)NC3CCCCC3)ccc2O1`, the relative growth was inactive: 0.992.
Regarding `C[C@@H]1CN([C@@H](C)CO)C(=O)CCCn2cc(nn2)CO[C@H]1CN(C)S(=O)(=O)c1ccc(-c2ccccc2)cc1`, the relative growth was inactive: 0.969.
To `C=CCOC(=O)[C@H]1[C@@H]2C(=O)O[C@@H](c3ccccc3)[C@@H](c3ccccc3)N2[C@@H](c2ccc(OCCOC(=O)[C@H]3C[C@H]4C(=O)N[C@@H](CC(C)C)C(=O)N4[C@H]3c3ccc(O)cc3)cc2)[C@]12C(=O)Nc1ccc(I)cc12` belongs inactive: 1; to `CCOC(=O)C1=C(CN2CCOCC2)NC(c2nccs2)=N[C@@H]1c1ccc(F)cc1Br`, inactive: 0.959; to `COCC#Cc1cnc2c(c1)C(=O)N([C@H](C)CO)C[C@H](C)[C@H](CN(C)S(=O)(=O)c1cn(C)cn1)O2`, inactive: 0.979.
Turning to `C[C@@H]1CN([C@H](C)CO)C(=O)c2cc(NS(=O)(=O)c3ccc(F)cc3)ccc2O[C@@H](C)CCCCO[C@@H]1CN(C)S(=O)(=O)c1ccc(Cl)cc1`, the relative growth is inactive: 1.01.
As for `COCCCNC(=O)[C@@]1(Sc2ccc(C)cc2)CC(=O)N(Cc2cc(C(F)(F)F)cc(C(F)(F)F)c2)[C@@H]1c1ccc(CO)cc1`, the relative growth is inactive: 0.925.
As for `CCCC(=O)Nc1ccc2c(c1)OC[C@@H](C)N(Cc1ccc(-c3ccccn3)cc1)C[C@@H](C)[C@H](OC)CN(C)C2=O`, the figure is inactive: 1.01; as for `CO[C@H]1CN(C)C(=O)c2ccc(NS(=O)(=O)c3ccccc3)cc2OC[C@@H](C)N(C(=O)NC(C)C)C[C@H]1C`, inactive: 0.991.
To `COc1ccc(S(=O)(=O)Nc2ccc3c(c2)C(=O)N([C@H](C)CO)C[C@H](C)[C@H](CN(C)C(=O)NC(C)C)O3)cc1` belongs inactive: 1; to `C[C@@H]1CN([C@@H](C)CO)C(=O)c2cc(NC(=O)c3ccccc3)ccc2O[C@@H](C)CCCCO[C@H]1CN(C)C(=O)CCC(F)(F)F`, inactive: 0.973.
As for `CO[C@H]1CN(C)C(=O)c2cc(NS(C)(=O)=O)ccc2OC[C@H](C)N(S(C)(=O)=O)C[C@@H]1C`, the relative growth was inactive: 0.995.
Regarding `C[C@H](CO)N1C[C@H](C)[C@H](CN(C)C(=O)Cc2ccncc2)Oc2cc(C#Cc3ccccc3F)ccc2S1(=O)=O`, the relative growth is inactive: 0.977.
As for `O=C(O)CSCC(=O)N1CCCCC1`, the figure is inactive: 1.01; as for `C[C@@H]1CN([C@H](C)CO)C(=O)c2cc(NC(=O)Nc3ccc(C(F)(F)F)cc3)ccc2O[C@@H]1CN(C)Cc1ccncc1`, inactive: 0.99.
To `C/C=C/c1ccc2c(c1)O[C@@H](CN(C)Cc1ccc(C(=O)O)cc1)[C@@H](C)CN([C@@H](C)CO)S2(=O)=O` belongs inactive: 1.02; to `NCCOB(c1ccccc1)c1ccccc1`, inactive: 0.954; to `CCNC(=O)C[C@@H]1CC[C@H](NC(=O)C2CC2)[C@@H](CO)O1`, inactive: 1.
As for `NC(=O)C1N=CN([C@@H]2O[C@H](CO)[C@@H](O)[C@H]2O)C1=O` (stereo not given in full), the relative growth was inactive: 1.02.
For the compound `C[C@H]1CN([C@@H](C)CO)C(=O)c2cc(NS(=O)(=O)c3ccc(F)cc3)ccc2O[C@H]1CN(C)C(=O)Nc1cccc2ccccc12`, the relative growth is inactive: 1.
Consider `C[C@@H]1CCCCO[C@@H](CN(C)C(=O)c2ccccc2)[C@H](C)CN([C@@H](C)CO)C(=O)c2cc(NS(=O)(=O)c3ccc(Cl)cc3)ccc2O1`, for which the relative growth is inactive: 1.04.
To `C[C@@H]1CCCCO[C@@H](CN(C)C(=O)NC2CCCCC2)[C@@H](C)CN([C@H](C)CO)C(=O)c2cc(NC(=O)c3ccccc3)ccc2O1` belongs inactive: 1.02; to `C[C@@H]1CCCCO[C@H](CN(C)C(=O)Nc2ccccc2)[C@H](C)CN([C@@H](C)CO)C(=O)c2cc(NC(=O)c3ccccc3)ccc2O1`, inactive: 0.982; to `C[C@@H]1CN([C@@H](C)CO)C(=O)c2cc(NS(=O)(=O)c3ccc(F)cc3)ccc2O[C@@H](C)CCCCO[C@H]1CN(C)C(=O)Nc1cccc2ccccc12`, inactive: 1.06.
As for `CC(C)NC(=O)N(C)C[C@H]1Oc2c(NS(=O)(=O)c3cccs3)cccc2C(=O)N([C@@H](C)CO)C[C@H]1C`, the relative growth was inactive: 1.01.
As for `CO[C@H](CN(C)S(=O)(=O)c1cccc(Cl)c1)[C@H](C)CN([C@@H](C)CO)S(=O)(=O)c1cccc(Cl)c1`, the figure is inactive: 1.01; as for `CC(C)N1C(=O)NC(=O)[C@@H]1CC(=O)O`, inactive: 1.02; as for `O=C1O[C@H](c2ccccc2)[C@H](c2ccccc2)N2[C@H]1[C@@H](C(=O)N1CCCCCCC1)[C@]1(C(=O)Nc3ccc(C#CCCO)cc31)[C@H]2c1ccc(OCCO)cc1`, inactive: 1.05.
To `OC[C@@H]1O[C@H](O)[C@H](O)[C@H](O[C@@H]2O[C@H](CO)[C@H](O)[C@H](O[C@@H]3O[C@H](CO)[C@@H](O)[C@H](O)[C@@H]3O)[C@H]2O)[C@H]1O` belongs inactive: 1; to `C[C@@H]1CCCCO[C@@H](CN(C)C(=O)C2CCCCC2)[C@H](C)CN([C@H](C)CO)C(=O)c2cc(NC(=O)Cc3ccccc3)ccc2O1`, inactive: 0.991.
As for `C[C@H]1CN([C@@H](C)CO)C(=O)c2cccc(NC(=O)C3CCOCC3)c2O[C@@H]1CN(C)Cc1ccccc1`, the figure is inactive: 0.989; as for `CN1CCCN=C1C=Cc1cccs1.O=C(O)c1cc2ccccc2c(Cc2c(O)c(C(=O)O)cc3ccccc23)c1O`, inactive: 1.13.
Take `COc1ccc(S(=O)(=O)Nc2ccc3c(c2)CC(=O)N([C@@H](C)CO)C[C@@H](C)[C@H](CN(C)Cc2ccc(Cl)c(Cl)c2)O3)cc1`: the relative growth was inactive: 0.944.
As to `CC(C)(C)S(=O)N1Cc2cc(C(=O)N3CCN(Cc4ccccc4)CC3)nc(-c3cccc(C#CCC4CCCC4)c3)c2[C@H]1CCO` (stereo not given in full), the relative growth was inactive: 0.997.
As for `CCCC(=O)N1CC[C@]2(CC1)CN([C@H](CO)c1c2c2ccc(cc2n1C)OC)C(=O)CN1CCOCC1`, the figure is inactive: 1; as for `COc1cc(O)c(C(C)=O)c(OC)c1`, inactive: 1.05.
To `C#CCN(C)CCCOc1ccc(Cl)cc1Cl.Cl` belongs inactive: 0.97; to `Cc1noc(C)c1S(=O)(=O)Nc1ccc2c(c1)C(=O)N([C@@H](C)CO)C[C@@H](C)[C@@H](CN(C)S(=O)(=O)c1ccc(Cl)cc1)O2`, inactive: 1.02.
As for `C[C@H](CO)N1C[C@H](C)[C@H](CN(C)C(=O)Nc2cccc(Oc3ccccn3)c2)OCc2cn(nn2)CCCC1=O`, the relative growth was inactive: 0.985.
To `C[C@@H]1CN([C@@H](C)CO)C(=O)c2cccc(NS(=O)(=O)c3cccs3)c2O[C@@H]1CN(C)S(C)(=O)=O` belongs inactive: 0.975.
As for `C[C@H]1CN([C@@H](C)CO)C(=O)c2cc(NS(=O)(=O)c3ccc(F)cc3)ccc2O[C@@H]1CN(C)S(=O)(=O)c1cn(C)cn1`, the figure is inactive: 0.98; as for `NC(=O)C[C@H](N)C(=O)O`, inactive: 0.95.
As for `COc1cc2c(cc1OC)C1C(=O)c3ccc4c(c3OC1CO2)C=CC(C)(C)O4` (stereo not given), the figure is inactive: 1.02; as for `C[C@@H]1CN([C@H](C)CO)C(=O)c2cc(NC(=O)NC3CCCCC3)ccc2O[C@H]1CN(C)Cc1ccc(C(F)(F)F)cc1`, inactive: 1.02; as for `O=c1c(O)c(-c2ccc(O)c(O)c2)oc2c(O[C@@H]3O[C@H](CO)[C@H](O)[C@@H](O)[C@H]3O)c(O)cc(O)c12`, inactive: 0.987.
`COc1ccc(CN(C)C[C@@H]2Oc3ccc(NS(C)(=O)=O)cc3CC(=O)N([C@H](C)CO)C[C@@H]2C)cc1`: the relative growth is inactive: 1.
As for `COc1ccc(S(=O)(=O)N[C@@H]2CC[C@H](CC(=O)N3CCC(Cc4ccccc4)CC3)O[C@@H]2CO)cc1`, the relative growth is inactive: 0.979.

Source of the values: the supplement of paper PMC9446081.
